Data reported in patent US4997950A, “Novel C-terminal gastrin antagonists” (priority 1989, dated 1991).
Entries after “also recorded” stand apart in the source; their conditions may differ. At least one compound was matched to its structure with a doubt left. Non-standard residues stand in square brackets, D forms with d. Residues, ends and D or L forms follow the SMILES beside them. *: point of attachment. 3Abz = Nc1cccc(C(=O)O)c1; Boc = CC(C)(C)OC(=O)*

Tests used:
[1] = system: acid secretion, isolated perfused rat stomach; assay: acid output from the isolated, perfused rat stomach, with or without gastrin-17; parameters: species or system rat (Wistar); conditions: for effect on acid secretion, isolated perfused stomach: 10^-9 to 10^-5 M, absence or presence of gastrin-17 520 pM
Procedure: In brief, stomachs from fasted male Wistar rats (240-270 g) were completely isolated and placed in organ baths filled with Krebs-Ringer buffer. The vascular bed was perfused at a rate of 2 ml.min^-1 with Krebs-Ringer buffer containing 5 mM glucose, 5 mM pyruvate, 40 mg.ml^-1 bovine serum albumin and 10% (v/v) fresh, washed ovine erythrocytes gassed with 96% O2, 4% CO2 by a membrane oxygenator. The gastric lumen was perfused with distilled water (pH 7.0) gassed with O2 (100%). All perfusates and the organ bath were kept at 37° C. After an initial "wash-out" period of 20 minutes, isobutylmethylxanthine (50 μM) was added to the vascular perfusate. After a further 20 minutes, the peptide to be tested was added, giving a final peptide concentration of 10^-9, 10^-7 or 10^-5 M. Five other stomachs were given 520 pM gastrin which was known to produce maximal acid secretion. Furthermore, each peptide was given together with gastrin (520 pM) to evaluate the gastrin inhibitory properties of the peptide. The acid output was determined by titration of the lumenal perfusate to neutrality with dodium hydroxide (1 mM).

[2] = system: histamine stimulated acid secretion; assay: inhibition of histamine stimulated acid secretion in dogs with gastric fistula and Heidenhain pouch; format: in vivo, dog (beagle)
pepsin secretion = assay: inhibition of pepsin secretion in dogs with gastric fistula and Heidenhain pouch; format: in vivo, dog (beagle)
Procedure: (§1) In brief, six beagle dogs were surgically prepared with Heidenhain pouches and gastric fistula. The dogs were fasted for 18 hours before the experiment. […] Collections of gastric secretions were recovered at 10 minute intervals. Each dog received an intravenous infusion throughout the experiment consisting of 150 mM NaCl and 8 mM KCl at 2 ml.min^-1. Secretory stimulants and the synthetic peptides were added to this infusion at appropriate rates. The stimulants of gastric secretion used were pentagastrin and histamine phosphate. Pentagastrin (0.5 μg.Kg^-1.h^-1) was given for 1 hour and then the synthetic peptide was added to the infusion and continued for another hour at a dose of 20 pmol.kg^-1 h^-1. The procedure was identical for histamine except that the dose of histamine was […]. The ten minute samples were titrated to pH 7.0 by the addition of sodium hydroxide (1 mM) and the acid secretion was expressed as μmol H^+ per 10 minutes.

[3] = system: pentagastrin-stimulated acid secretion; assay: inhibition of pentagastrin-stimulated acid secretion in dogs with gastric fistula and Heidenhain pouch; format: in vivo, dog (beagle); conditions: analogue 20 pmol.kg^-1.h^-1, period 110-170 minutes
Procedure: as §1
The analogues depicted in Table 6.5 were tested as gastrin antagonists using dogs surgically prepared with gastric fistulae and Heidenhain pouches. The acid secretion was measured at 10 minute intervals during the administration of pentagastrin and each of the analogues.

[4] = system: pentagastrin stimulated acid secretion, rat stomach; assay: acid secretion from the ligated rat stomach; format: in vivo, rat (Sprague-Dawley); conditions: for ACID SECRETION: basal 26.7 ± 3.21
[5] = peptide 10^-5 M + G-17 (520 pM), gastrin alone 58.7

SMILES: CC(=O)N[C@@H](Cc1c[nH]c2ccccc12)C(=O)N[C@@H](CC(C)C)C(=O)N[C@@H](CC(=O)O)C(N)=S [Peptide IX, Acetyl-L-Tryptophyl-L-Leucyl-L-Aspartylthioamide]
- effect on acid secretion, isolated perfused stomach [1]: has no effect on acid secretion
- Acid output [1, 5]: 60.6 μmol H^+ /60 min
- Acid output ([1]; peptide 10^-5 M, basal 8.7): 15.0 μmol H^+ /60 min
- Acid output ([1]; peptide 10^-7 M, basal 8.7): 6.0 μmol H^+ /60 min
- Acid output ([1]; peptide 10^-9 M, basal 8.7): 15.5 μmol H^+ /60 min

SMILES: COC(=O)c1cccc(NC(=O)[C@H](CC(=O)O)NC(=O)[C@H](CC(C)C)NC(=O)[C@H](Cc2c[nH]c3ccccc23)NC(=O)OC(C)(C)C)c1 [Peptide VI, t-Butyloxycarbonyl-L-Tryptophyl-L-Leucyl-L-Aspartyl-m-Aminobenzoic acid methyl ester] (Boc-WLD[3Abz]-OMe)
- Acid Inhibition (histamine stimulated) ([2]; GF (gastric fistula)): -83.04 mmol H^+ /kg
- Acid Inhibition (histamine stimulated) ([2]; HP (Heidenhain pouch)): 0.90 mmol H^+ /kg
- percentage inhibition of acid (histamine stimulated) ([2]; HP (Heidenhain pouch)): 0.004%
- effect on histamine-stimulated acid secretion ([2]; gastric fistula and Heidenhain pouch): no inhibition caused by the analogue in either the gastric fistula or Heidenhain pouch systems; also recorded: appears to be specific for pentagastrin as a stimulant
- Inhibition of Pepsin Secretion (pepsin secretion; GF (gastric fistula)): -5.8 Units/kg
- percentage inhibition of pepsin secretion (pepsin secretion; GF (gastric fistula)): 0%
- Inhibition of Pepsin Secretion (pepsin secretion; HP (Heidenhain pouch)): -1.33 Units/kg
- ACID INHIBITION ([3]; GF (gastric fistula)): 446.19 mmol H^+ /kg
- percentage inhibition of acid ([3]; GF (gastric fistula)): 43.4%
- ACID INHIBITION ([3]; HP (Heidenhain pouch)): 42.20 mmol H^+ /kg
- percentage inhibition of acid ([3]; HP (Heidenhain pouch)): 65.9%

SMILES: CC(=O)N[C@@H](Cc1c[nH]c2ccccc12)C(=O)N[C@@H](CC(C)C)C(=O)N[C@@H](CC(=O)O)C(=O)N[C@@H](Cc1ccccc1)C(N)=S [Peptide VII, Acetyl-L-Tryptophyl-L-Leucyl-Aspartyl-L-Phenylalanylthioamide]
- effect on acid secretion, isolated perfused stomach [1]: weak agonists of acid secretion
- Acid output [1, 5]: 92.7 μmol H^+ /60 min
- Acid output ([1]; peptide 10^-5 M, basal 8.7): 74.7 μmol H^+ /60 min
- Acid output ([1]; peptide 10^-7 M, basal 8.7): 28.9 μmol H^+ /60 min
- Acid output ([1]; peptide 10^-9 M, basal 8.7): 7.9 μmol H^+ /60 min

SMILES: CNC(=S)[C@H](Cc1ccccc1)NC(=O)[C@H](CC(=O)O)NC(=O)[C@H](CC(C)C)NC(=O)[C@H](Cc1c[nH]c2ccccc12)NC(C)=O [Peptide VIII, Acetyl-L-Tryptophyl-L-Leucyl-L-Aspartyl-L-Phenylalanyl thiomethylamide]
- effect on acid secretion, isolated perfused stomach [1]: weak agonists of acid secretion
- Acid output [1, 5]: 88.4 μmol H^+ /60 min
- Acid output ([1]; peptide 10^-5 M, basal 8.7): 71.7 μmol H^+ /60 min
- Acid output ([1]; peptide 10^-7 M, basal 8.7): 25.5 μmol H^+ /60 min
- Acid output ([1]; peptide 10^-9 M, basal 8.7): 7.4 μmol H^+ /60 min

SMILES: CC(C)C[C@H](NC(=O)OCc1ccccc1)C(=S)N[C@@H](CC(=O)O)C(=O)N[C@@H](Cc1ccccc1)C(N)=O [Peptide XI, Carbobenzoxy-L-Leucyl-thiono-L-Aspartyl-L-Phenylalanyl-amide]
- effect on acid secretion, isolated perfused stomach [1]: weak antagonist of acid secretion
- Acid output [1, 5]: 39.2 μmol H^+ /60 min
- Acid output ([1]; peptide 10^-5 M, basal 8.7): 1.8 μmol H^+ /60 min
- Acid output ([1]; peptide 10^-7 M, basal 8.7): 6.9 μmol H^+ /60 min
- Acid output ([1]; peptide 10^-9 M, basal 8.7): 7.2 μmol H^+ /60 min

SMILES: CC(C)C[C@H](NC(=O)[C@H](Cc1c[nH]c2ccccc12)NC(=O)CN1CC[C@H](NC(=O)[C@H](C)NC(=O)OC(C)(C)C)C1=O)C(=O)N[C@@H](CC(=O)O)C(=O)N[C@@H](Cc1ccccc1)C(N)=O [Peptide XXII, t-Butyloxycarbonyl-L-Alanyl-amino-2-oxo-1-pyrrolidineacetyl-L-Tryptophyl-L-Leucyl-L-Aspartyl-L-Phenylalanyl amide]
- ACID SECRETION ([4]; peptide 4 pmol/kg): 50.0 ± 7.71 μmol/80 min
- ACID SECRETION ([4]; peptide 80 pmol/kg): 55.7 ± 12.6 μmol/80 min
- effect on acid secretion, ligated stomach ([4]; peptide I 8.2 nmol.Kg^-1 with pentagastrin, peptide XXII 80 or 4 pmol.Kg^-1): is an agonist when administered at 80 pmol.Kg^-1 or 4 pmol.Kg^-1; also recorded: induces an acid secretion rate similar to that produced by pentagastrin at a dose of 13 nmol.Kg^-1
